Source: ChEMBL document CHEMBL4888484, “Replenishing the malaria drug discovery pipeline: Screening and hit evaluation of the MMV Hit Generation Library 1 (HGL1) against asexual blood stage Plasmodium falciparum ,using a nano luciferase reporter read-out” (2022)
About 540 (0.36%) of roughly 150,000 compounds showed an effect of 50% or more. The list shows a part of the results.

tested on: Plasmodium falciparum; assay: Primary screen in NF54 nanoGlo assay, in single point, at 2uM, 72h; a lower Z score goes with more inhibition; format: functional, Erythrocyte; settings: timepoint 72 hour

SMILES | % Inhibition [%] | Z score
COc1ccc(C(=O)Nc2ccc3nccnc3c2)cc1OC | -25 | 2.95
CC(=O)N[C@H](c1nc(C2(c3ccccc3)CC2)nn1CCO)C(C)C | -5 | 0.67
COc1ncccc1C(=O)Nc1ccccc1Nc1ccncc1 | -8 | 1.57
CCN(CC)c1nc(Nc2ccc(Cl)c(Cl)c2)nc(Nc2cc(C)ccc2C)n1 | 41 | -5.24
CN(CC#CCNC(=O)c1ccc(Cl)cc1)Cc1ccccc1 | -4 | 0.6
C=C(C)COCCNC(=O)N1CCC(C)C1CO (configuration not stated) | -10 | 1.5
Cc1nc(C(=O)N2CCC(F)(F)C2)c[nH]1 | -2 | 0.21
CO[C@H]1CCN(C(=O)c2csc3ccccc23)CC1(C)C | -4 | 0.43
O=C([C@H]1CCN(C2CCCCC2)C1)N1CCc2sccc2C1 | 1 | -0.23
COc1ccc2cc(C(=O)NCc3ccnc(Oc4ccccc4)c3)[nH]c2c1 | -7 | 1.13
CCCS(=O)(=O)Nc1ccc(S(=O)(=O)N(C)[C@@]2(C#N)CCOC2)cc1F | -6 | 0.71
COc1ccc(OC)c(S(=O)(=O)N(CCC(=O)N2CCNCC2)C[C@H]2CCCO2)c1 | -3 | 0.56
COC(=O)c1cc(-c2ccc(C(=O)N3CCC[C@@]4(CCN(C)C4)C3)cc2)c[nH]1 | -13 | 2.5
Cc1ccnc(N2CCC(O)(Cn3ccnc3)CC2)n1 | -12 | 1.12
O=C(N[C@@H]1CN(C2CCCCCC2)CC[C@@H]1CO)c1cccnc1 | -10 | 1.32
COc1cc(CNc2cccc(-c3nc4ccccc4s3)c2)ccc1OCc1c(Cl)cccc1Cl | -39 | 4.57
O=C(c1cc(-c2ccc(O)cc2)n[nH]1)N1CCC[C@@](O)(CO)C1 | -17 | 1.55
Cc1nc(-c2cc(S(=O)(=O)N3CCCCC3)c(C)n2C)sc1C(=O)N1CCCCCC1 | 4 | -0.41
O=C(COc1ccc(F)cc1)N1CCc2nc(OCC3CC3)ccc2C1 | 36 | -5.15
O=C(c1ccc2ncccc2c1)N1CCC(Cc2nnc(C3CC3)[nH]2)CC1 | 0 | -0.06
CN(Cc1ccccc1)C(=O)CCC1CCN(C(=O)[C@@H]2CNCC(=O)N2)CC1 | -3 | 0.52

SMILES | % Inhibition [%] | Z score
CC1CN(Cc2ccccc2)CC(C)C1NC(=O)Nc1nccs1 (configuration not stated) | 1 | -0.11
CC(C)n1ccc(CN2CCN(S(=O)(=O)c3ccc(F)cc3)CC2)n1 | -4 | 0.5
Fc1ccc2c(c1F)CN(c1ncnc3[nH]ccc13)CC2 | -5 | 0.77
O[C@H](c1ncc[nH]1)C1CCN(c2ncncc2Br)CC1 | -4 | 0.61
Cc1c(C)c(C(=O)Nc2ccc(C(C)C)cc2)n(Cc2ccccc2F)c1C | -9 | 1.18
COc1ccc(-c2cnc3ncnn3c2N2CCN(C(=O)c3ccccc3C(F)(F)F)CC2)cc1 | 0 | -0.06
CC(C)CN(Cc1nccn1Cc1ccc(Cl)cc1Cl)C(=O)c1ccccc1F | 0 | 0.07
Cc1cccc(CN2CCN(Cc3ccco3)C[C@H](C(=O)O)C2)c1 | -2 | 0.35
O=C(c1nc(-c2ccc(S(=O)(=O)N3CCCCC3)cc2)no1)N1CCCCC1 | -13 | 1.51
CN1CCN(C(=O)c2cnnn2C)C(C)(C)C1 | 1 | -0.1
O=C1c2cccnc2CN1Cc1nncn1CCc1ccccc1 | -14 | 1.32
CCN(Cc1nc(C)no1)C(=O)Nc1ccc(OC[C@H]2CCCCO2)cc1 | 16 | -2.08
Cc1c(CCC(=O)N[C@H]2CCCc3sc(Cl)cc32)cnn1C | 0 | -0.09
Cc1cc(C2CC2)nc(NS(=O)(=O)c2c(Cl)ccc(C)c2Cl)n1 | -1 | 0.23
O=C(NCC1(c2ccc(F)cc2F)CC1)C1(O)CCCC1 | -9 | 1.19
N#Cc1ncn(CC(=O)N2CCC(Cc3ccccc3)CC2)c1C#N | 3 | -0.38
O=C(NC1(c2cn(-c3cccc(Cl)c3)nn2)CCCCC1)c1cn(-c2cccc(Cl)c2)nn1 | 3 | -0.37
Cc1nccn1CCCCNC(=O)N1CCCCCC1 | -3 | 0.31
COC(=O)c1c(F)ccc(Cl)c1N | 0 | 0
Cc1noc(NS(=O)(=O)c2c(C)nn(CC(C)C)c2C)c1C | -5 | 0.83
